# According to a collection of fitness landscapes (doi:10.1038/s41467-024-54723-y):
# The full ranking holds about 18,000 sequences; the median of “TetR repression strength (sort-seq, GFP reporter)” is about 0.23, and the highest 2% start at about 0.68. The list shows a part of the results.
# Biological target: TetR (class B, Tn10) (UniProt P04483)
# Assay: TetR repression strength (sort-seq, GFP reporter) (relative to tetO2 = 1); higher = stronger repression
# Conditions: E. coli
# In short: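 Three independent transformations of E. coli SIG10-MAX were made with a low-copy plasmid library randomizing eight operator positions between a constitutive promoter and sfGFP, with constitutive TetR. Following 5 h at 37 °C in LB plus 50 µg/mL chloramphenicol, 10^6 cells went through FACS into 13 fluorescence bins, and each bin was sequenced by Illumina. Repression strength was defined as the top bin index plus one minus the read-weighted mean bin, divided by the unaltered operator's value. Averages included only members reaching ≥30 reads in all replicates with a CV ≤0.5.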
# Sequence of UniProt P04483 (P04483 whole entry): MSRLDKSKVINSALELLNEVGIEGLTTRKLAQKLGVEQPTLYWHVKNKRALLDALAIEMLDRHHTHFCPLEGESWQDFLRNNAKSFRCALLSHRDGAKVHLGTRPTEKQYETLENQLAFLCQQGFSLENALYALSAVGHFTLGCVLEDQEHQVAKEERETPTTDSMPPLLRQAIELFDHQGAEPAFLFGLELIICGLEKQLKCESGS
row,Sequence,TetR repression strength
1,TCCCATGTAGTAGGAGAGA,0.0472
2,TCCCGTGTAGTTTGCGAGA,0.234
3,TCCCCAGGAGTCTCCGAGA,0.155
4,TCCCCGCCAGTGTATGAGA,0.211
5,TCCCAGCGAGTCGGCGAGA,0.385
6,TCCCGAGTAGTTTAGGAGA,0.264
7,TCCCCCCGAGTCGGGGAGA,0.591
8,TCCCGTGTAGTCTCTGAGA,0.03
9,TCCCCGAAAGTACGGGAGA,0.181
10,TCCCCCTCAGTGGTTGAGA,0.152
11,TCCCTGAGAGTTTATGAGA,0.587
12,TCCCGTACAGTTCGGGAGA,0.15
13,TCCCTGGCAGTAACTGAGA,0.231
14,TCCCCTTGAGTCACGGAGA,0.362
15,TCCCTGGGAGTACATGAGA,0.12
16,TCCCTGGTAGTAGAGGAGA,0.0794
17,TCCCGTCAAGTTACGGAGA,0.529
18,TCCCGCAAAGTGGACGAGA,0.236
19,TCCCAACTAGTGGGGGAGA,0.212
20,TCCCCCACAGTAAAGGAGA,0.164
21,TCCCGGATAGTGTTAGAGA,0.275
22,TCCCAATGAGTATCTGAGA,0.442
23,TCCCTTCTAGTTCGTGAGA,0.415
24,TCCCAGCAAGTGGGTGAGA,0.699
25,TCCCACTCAGTGCCAGAGA,0.287
26,TCCCGGGTAGTATGAGAGA,0.516

row,Sequence,TetR repression strength
1,TCCCTATTAGTTACGGAGA,0.239
2,TCCCGATGAGTTGGTGAGA,0.359
3,TCCCCAGGAGTTCGAGAGA,0.271
4,TCCCCTAAAGTACGGGAGA,0.269
5,TCCCGTGGAGTGGGCGAGA,0.141
6,TCCCGAATAGTACGCGAGA,0.153
7,TCCCCGTCAGTTTTCGAGA,0.258
8,TCCCATACAGTGTCAGAGA,0.315
9,TCCCTAAGAGTTGCTGAGA,0.261
10,TCCCGGTAAGTGGCCGAGA,0.21
11,TCCCAGCGAGTTTAAGAGA,0.014
12,TCCCTCAGAGTGCCTGAGA,0.211
13,TCCCCTCGAGTGCCGGAGA,0.442
14,TCCCGTGTAGTGGTGGAGA,0.185
15,TCCCGTTTAGTCGCGGAGA,0.215
16,TCCCCGCGAGTTGCGGAGA,0.247
17,TCCCTCTAAGTTGTCGAGA,0.486
18,TCCCGCGGAGTCGTCGAGA,0.179
19,TCCCGGTAAGTGGTGGAGA,0.269
20,TCCCGGTCAGTTGCTGAGA,0.384
21,TCCCGAGTAGTAGTAGAGA,0.03
22,TCCCGTAGAGTGAAGGAGA,0.238
23,TCCCACGGAGTGAGAGAGA,0.435
24,TCCCTCCGAGTGCTCGAGA,0.311
25,TCCCCACGAGTAGTGGAGA,0.217
26,TCCCGGAGAGTTACGGAGA,0.294

row,Sequence,TetR repression strength
1,TCCCTTGGAGTCGGGGAGA,0.319
2,TCCCTGCAAGTTTATGAGA,0.256
3,TCCCTTCAAGTATTTGAGA,0.373
4,TCCCATTAAGTAGTAGAGA,0.223
5,TCCCTATCAGTGAGTGAGA,0.79
6,TCCCGGCTAGTACACGAGA,0.262
7,TCCCCATGAGTGATTGAGA,0.517
8,TCCCCGCTAGTGGCAGAGA,0.282
9,TCCCAAGGAGTGGGCGAGA,0.231
10,TCCCGGTTAGTCTCAGAGA,0.29
11,TCCCGGTCAGTTCTTGAGA,0.44
12,TCCCGATGAGTTGCCGAGA,0.284
13,TCCCGTGGAGTGGGGGAGA,0.253
14,TCCCGGACAGTGACTGAGA,0.216
15,TCCCGTCAAGTTAGGGAGA,0.195
16,TCCCGGTTAGTCTTCGAGA,0.18
17,TCCCTGACAGTTTCGGAGA,0.226
18,TCCCAAGTAGTGAACGAGA,0.112
19,TCCCTGTGAGTCTATGAGA,0
20,TCCCGGGGAGTTGACGAGA,0.153
21,TCCCTTGAAGTCAATGAGA,0.369
22,TCCCTATGAGTTCCAGAGA,1.01
23,TCCCCCCAAGTGTAGGAGA,0.207
24,TCCCAAACAGTTTGTGAGA,0.0981
25,TCCCGCGCAGTAGGGGAGA,0.233
26,TCCCATTTAGTCTCCGAGA,0.505

row,Sequence,TetR repression strength
1,TCCCGGAAAGTCGTAGAGA,0.0816
2,TCCCCACCAGTGTCAGAGA,0.334
3,TCCCGGGTAGTAGAGGAGA,0.097
4,TCCCCGGTAGTATGCGAGA,0.5
5,TCCCTGTCAGTGCATGAGA,0.361
6,TCCCTGACAGTGTCAGAGA,0.263
7,TCCCGTGGAGTAGGGGAGA,0.191
8,TCCCTGTCAGTCGCCGAGA,0.379
9,TCCCTTAGAGTCTATGAGA,0.159
10,TCCCTGGGAGTGTTGGAGA,0.288
11,TCCCGTCTAGTACTCGAGA,0.262
12,TCCCAAGGAGTTTGAGAGA,0.205
13,TCCCGGCAAGTTAGAGAGA,0.43
14,TCCCTTCAAGTAATCGAGA,0.624
15,TCCCGGTAAGTCAAGGAGA,0.397
16,TCCCTAAGAGTAGGGGAGA,0.141
17,TCCCTAAGAGTGGTGGAGA,0.129
18,TCCCGCTGAGTTATGGAGA,0.241
19,TCCCGGTCAGTGCGCGAGA,0.364
20,TCCCATGAAGTGGTGGAGA,0.0823
21,TCCCTCGCAGTTTGTGAGA,0.291
22,TCCCGGCAAGTGCCAGAGA,0.242
23,TCCCCACGAGTTGGCGAGA,0.105
24,TCCCTGGGAGTGGTCGAGA,0.303
25,TCCCATATAGTTCGTGAGA,0.113
26,TCCCAGTGAGTATAAGAGA,0.0512

row,Sequence,TetR repression strength
1,TCCCCGCTAGTTAAGGAGA,0.755
2,TCCCTGGGAGTTTAAGAGA,0.173
3,TCCCGAACAGTGTTAGAGA,0.522
4,TCCCGGCAAGTTGGTGAGA,0.189
5,TCCCATCCAGTCAGTGAGA,0.188
6,TCCCGTAAAGTCGAGGAGA,0.0148
7,TCCCACCGAGTGATCGAGA,0.405
8,TCCCAGACAGTATCGGAGA,0.307
9,TCCCACTTAGTGGTAGAGA,0.405
10,TCCCCTTTAGTGTCGGAGA,0.218
11,TCCCCAGCAGTGAGGGAGA,0.0743
12,TCCCATATAGTGAGGGAGA,0.103
13,TCCCAGTAAGTGGGGGAGA,0.196
14,TCCCTGCTAGTCGAGGAGA,0.28
15,TCCCGAGGAGTGTATGAGA,0.283
16,TCCCTTCAAGTCGCAGAGA,0.26
17,TCCCAGGAAGTGTAGGAGA,0.144
18,TCCCTCAGAGTGTGTGAGA,0.0134
19,TCCCGTCGAGTGCGCGAGA,0.193
20,TCCCGGGGAGTGCTTGAGA,0.229
21,TCCCGTTGAGTCTGCGAGA,0.387
22,TCCCCCTGAGTCAGAGAGA,0.00715
23,TCCCGCTGAGTGAGCGAGA,0.305
24,TCCCACCAAGTGGTAGAGA,0.272
25,TCCCGTGGAGTCGCGGAGA,0.168
26,TCCCTCTTAGTGGCAGAGA,0.291

row,Sequence,TetR repression strength
1,TCCCACTAAGTCTGTGAGA,0.518
2,TCCCTTGGAGTGGGTGAGA,0.207
3,TCCCGGCGAGTTTGTGAGA,0.151
4,TCCCCCGTAGTCGGTGAGA,0.324
5,TCCCTGTTAGTACTTGAGA,0
6,TCCCGGTGAGTCAGTGAGA,0.205
7,TCCCAGGAAGTGAGTGAGA,0.141
8,TCCCGTGCAGTCTTGGAGA,0.308
9,TCCCTGCAAGTGGGGGAGA,0.171
10,TCCCCTGCAGTATTGGAGA,0.294
11,TCCCTCGCAGTGAAAGAGA,0.32
12,TCCCTCTCAGTAGGGGAGA,0.133
13,TCCCATTTAGTTTGCGAGA,0.272
14,TCCCAACGAGTGGAGGAGA,0.0706
15,TCCCGGAGAGTTTGTGAGA,0.193
16,TCCCTTACAGTCGAGGAGA,0.0813
17,TCCCCAGAAGTGTATGAGA,0.0415
18,TCCCATTAAGTCGCGGAGA,0.517
19,TCCCGGGGAGTGTCGGAGA,0.265
20,TCCCTGCAAGTAGATGAGA,0.221
21,TCCCGCGGAGTGTAAGAGA,0.256
22,TCCCCAGTAGTGTCCGAGA,0.268
23,TCCCCCCCAGTCGATGAGA,0.409
24,TCCCAGCGAGTAAGAGAGA,0.0795
25,TCCCATACAGTTCGTGAGA,0.0581
26,TCCCTTCCAGTCGAGGAGA,0.219

row,Sequence,TetR repression strength
1,TCCCCACAAGTGCAGGAGA,0.048
2,TCCCCGGTAGTGTCCGAGA,0.25
3,TCCCCCCCAGTGCCCGAGA,0.446
4,TCCCTTTGAGTTGTCGAGA,0.35
5,TCCCAACGAGTGTCCGAGA,0.258
6,TCCCGAGAAGTGGTCGAGA,0.54
7,TCCCTTAAAGTATGTGAGA,0.304
8,TCCCGTAAAGTGTAGGAGA,0.275
9,TCCCGTGCAGTGAAGGAGA,0.12
10,TCCCGGCGAGTCGACGAGA,0.228
11,TCCCGATCAGTACCGGAGA,0.203
12,TCCCGAGGAGTCGAGGAGA,0.171
13,TCCCCTTGAGTCGGGGAGA,0.247
14,TCCCGGCGAGTGCGCGAGA,0.188
15,TCCCTTAGAGTACCAGAGA,0.18
16,TCCCATAGAGTACTAGAGA,0.287
17,TCCCGCTCAGTGCCAGAGA,0.801
18,TCCCGAGGAGTGACAGAGA,0.169
19,TCCCACTAAGTTGGGGAGA,0.26
20,TCCCGGTAAGTGACAGAGA,0.456
21,TCCCGTATAGTGGGTGAGA,0.0718
22,TCCCTTTCAGTTAGAGAGA,0.136
23,TCCCACCTAGTACGTGAGA,0.381
24,TCCCGCTGAGTGGGCGAGA,0.253
25,TCCCCGCAAGTGAGCGAGA,0.591
26,TCCCGGTCAGTCTGTGAGA,0.287

row,Sequence,TetR repression strength
1,TCCCAAGGAGTGACGGAGA,0.372
2,TCCCCGCCAGTGGTGGAGA,0.0691
3,TCCCCATCAGTAGGTGAGA,0.33
4,TCCCAAAGAGTAGGTGAGA,0.213
5,TCCCTCAGAGTGGCGGAGA,0.183
6,TCCCTATTAGTGTCGGAGA,0.219
7,TCCCGAGTAGTGAGTGAGA,0.244
8,TCCCTTAAAGTTAGGGAGA,0.168
9,TCCCAGGTAGTTTGAGAGA,0.242
10,TCCCTCCGAGTTGGTGAGA,0.258
11,TCCCCAGAAGTTGGGGAGA,0.208
12,TCCCTCTGAGTCAAGGAGA,0.381
13,TCCCTTCGAGTGGGCGAGA,0.274
14,TCCCTGTAAGTCGCCGAGA,0.302
15,TCCCATTGAGTTGGAGAGA,0.244
16,TCCCAACTAGTGTTCGAGA,0.266
17,TCCCTTTAAGTCGATGAGA,0.197
18,TCCCTTAGAGTGAGAGAGA,0.281
19,TCCCGATTAGTCGACGAGA,0.0975
20,TCCCTTCGAGTCCGTGAGA,0.45
21,TCCCGTGCAGTAGATGAGA,0.222
22,TCCCTGTGAGTCCTGGAGA,0.342
